# The whole screen tested about 380,000 compounds, of which about 4,000 (1.1%) were called active. The inconclusive results got no clear call from the source; some entries with a clear call stand among them for comparison. Calls come from the whole dose curve; as a rule, active = well fitted activation curve with a large enough effect; inconclusive = small, poorly fitted or top-dose-only effect; inactive = no such curve, though single readings can be large or run the other way. A potency beside an inconclusive call is a rough fit, not a confirmed value.
# Assay: qHTS Assay to Identify Small Molecule Activators of BRCA1 Expression; note: nearly all actives have a fitted effect of over 80% in size
# Conditions: MCF7-BRCA1-FFLuc reporter, luminescence, 48 h; activation: at 46.1 µM (top of the series), scaled: vehicle 0%, 10 µM genistein 100% unless noted
# Procedure, shortened: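 Luminescence from a BRCA1-driven firefly luciferase in MCF7 cells was read after 48 h compound exposure at 37 C. Data normalized against DMSO and a 10microM genistein activation control, then curve-fitted across the titration.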
# Potency is the fitted concentration of half-maximal effect; tags give direction and shape of the fitted curve.
SMILES,activation,Potency
COc1cc(C(C(=O)NC(C)(C)C)N(C(=O)CNC(=O)c2cccs2)c2ccccc2)cc(OC)c1OC (stereo not given),inactive: -0.441%,
CC(Cc1cccs1)NC(=O)c1cccc(Cl)c1 (stereo not given),,"inconclusive: 12.6 µM [activator, partial curve, poor fit]"
C=CCNC(=S)NNC(=O)COc1ccc(Br)cc1,inactive: 13.8%,
COc1ccc2cc(/C=N/O)c(Cl)nc2c1,,active: 7.94 µM
COc1cccc(C2=N/C(=C\N(C)C)C(=O)O2)c1,,active: 11.2 µM
CC(=O)N(C)c1ccc(N=NC2C(=O)N(C(N)=S)N=C2C)cc1 (stereo not given),,active: 3.98 µM
C/C(=N/NC(=O)c1ccoc1C)c1ccc(N2CCOCC2)cc1,,"inconclusive: 12.6 µM [activator, single point]"
CCCC(=O)Nc1ccc(NC(=O)c2ccccn2)cn1,,"inconclusive: 2.51 µM [activator, full curve, poor fit]"
CCCCc1nc2cc(C(=O)N3CCC(O)CC3)ccc2o1,,active: 3.55 µM
O=C(Nc1cccc([N+](=O)[O-])c1)c1ccc2c(c1)OCO2,,"inconclusive: 11.2 µM [activator, partial curve, poor fit]"
CCc1ccc2oc(-c3ccc(C)c(NC(=O)c4ccc(C#N)cc4F)c3)nc2c1,inactive: -5.79%,
CC(=O)c1cccc(NC(=O)c2c(C)nn(-c3ccccc3)c2Cl)c1,,"inconclusive: 7.94 µM [activator, partial curve, poor fit]"
CCOC(=O)CS(=O)(=O)c1nc(-c2ccccc2)cc(C(F)(F)F)n1,inactive: -108%,
CCN(CC)C(=O)COc1ccc(-c2ccccc2)cc1,,"inconclusive: 11.2 µM [activator, partial curve, poor fit]"
O=C(Nc1nnc(S(=O)(=O)N2CCCCCC2)s1)c1ccccc1,,"inconclusive: 11.2 µM [activator, partial curve, poor fit]"
CCOC(=O)c1cccc(C2=CC(=O)C[C@H](c3ccc(OC)cc3)C2)c1,,active: 11.2 µM
Cc1ccc(OCc2cc(=O)n3c4c(sc3n2)CCCC4)cc1C,,"inconclusive: 4.47 µM [activator, partial curve, poor fit]"
CC(OC(=O)Cn1cnc2c1c(=O)n(C)c(=O)n2C)C(=O)N(C)c1ccccc1 (stereo not given),inactive: -28.1%,
CCNC(=S)Nc1ccc(-c2nc3ccccc3[nH]2)cc1,,"inconclusive: 1.58 µM [activator, full curve, poor fit]"
CC(=NCCCn1ccnc1)c1c(C)[nH]n(-c2ccc([N+](=O)[O-])cc2)c1=O,inactive: 34.9%,
CCOC(=O)c1sc(NC(=S)NC(=O)CC(C)C)cc1C,,"inconclusive: 0.631 µM [activator, full curve, poor fit]"
O=C(O)c1cc(N/N=C/c2ccc(-c3ccc(F)cc3)o2)ccc1Cl,,"inconclusive: 8.91 µM [activator, partial curve, poor fit]"
O=C(Nc1ccccc1)c1nnsc1S(=O)c1ccc(Cl)cc1 (stereo not given),inactive: 23.4%,
Nc1nonc1-n1nnc(C(=O)N/N=C/c2ccc(OCc3ccccc3)cc2)c1CN1CCCCC1,inactive: 76%,
O=C(O)CC(NC(=O)C12CC3CC(CC(C3)C1)C2)c1cc([N+](=O)[O-])ccc1Cl (stereo not given),inactive: 25%,

SMILES,activation,Potency
COc1ccc(NC(=O)c2cccc3c2C(=O)c2ccc(-c4ccc(F)cc4OCc4ccccc4)cc2S3(=O)=O)cc1,inactive: -33.6%,
Clc1ccc(CN2CCC(CNc3ncnc4onc(-c5ccc(Cl)cc5)c34)CC2)cc1,inactive: -16.7%,
CCC(=O)Nc1ccc2nn(-c3ccc(F)cc3)nc2c1,,"inconclusive: 0.355 µM [activator, full curve, poor fit]"
COc1ccc(-c2cc(C(F)(F)F)n3ncc(C(=O)NCc4ccco4)c3n2)cc1,inactive: -14.4%,
CCc1ccc(C(=O)COC(=O)c2cccs2)cc1,,"inconclusive: 15.8 µM [activator, partial curve, poor fit]"
Cc1ccc(C(=O)NCCCc2ccccc2)c(C)c1,,"inconclusive: 2.51 µM [activator, full curve, poor fit]"
c1ccc(CCNc2nc3ccccc3s2)cc1,,active: 11.2 µM
Oc1ccc(-c2csc(Nc3ncccn3)n2)c(O)c1,,active: 4.47 µM
CC(C)CC1Nc2ncnc(N3CCCCC3)c2N(Cc2ccccc2)C1=O (stereo not given),inactive: 0%,
Cn1c(-c2cccs2)nc2ccccc21,,active: 7.94 µM
Cc1cccc(C)c1NC(=O)CC(C)c1ccccc1 (stereo not given),inactive: -4.26%,
Cc1occc1C(=O)N/N=C/c1ccc(Br)s1,,active: 8.91 µM
S=C(c1ccc(OCc2ccccc2)cc1)N1CCCC1,,"inconclusive: 7.08 µM [activator, partial curve, poor fit]"
Cc1ccc(C(=O)/C=C2\NCCNC2=O)cc1,,"inconclusive: 1.26 µM [activator, partial curve, poor fit]"
CC(OC(=O)c1ccccn1)C(=O)Nc1nc(-c2ccc(F)c(F)c2)cs1 (stereo not given),,"inconclusive: 15.8 µM [activator, partial curve, poor fit]"
COc1ccc(OCc2ccc(/C=N\NC(=O)c3sccc3C)o2)cc1,,active: 12.6 µM
COc1ccc(C(CCN2CCCC(C)C2)c2c(OC)cc(OC)c3c(-c4ccccc4)cc(=O)oc23)cc1 (stereo not given),inactive: 0%,
COc1ccc(/C=N/NC(=O)c2ccccc2O)cc1COc1ccccn1,inactive: 8.36%,
CC(=O)c1cccc(NC(=O)C2CCCN(C(=O)c3cnn(-c4ccccc4)c3-n3cccc3)C2)c1 (stereo not given),inconclusive: 87.5% [activator],
COc1ccc(-c2nc(-c3ccc(Br)o3)no2)cc1,,"inconclusive: 1 µM [activator, full curve, poor fit]"
O=C(N/N=C/c1ccccc1)c1[nH]ncc1Br,,"inconclusive: 11.2 µM [activator, single point]"
Cc1csc(NC(=O)c2cc3c(s2)CCC3)n1,,"inconclusive: 2 µM [activator, full curve, poor fit]"
CCOC(=O)c1cc2c(=O)c3cc(C)ccc3oc2nc1C,,active: 11.2 µM
O=C(c1cc(COc2ccc(F)c(F)c2)on1)N1CCSCC1,,"inconclusive: 17.8 µM [activator, partial curve, poor fit]"
CCOc1ccc(NC(=O)c2ccccn2)cc1,inconclusive: -76.8% [activator],

SMILES,activation,Potency
COc1cccc(C=NN2CCCCCC2)c1OC,,active: 11.2 µM
CC(C)(C)C(=O)/C=C(N)/C=C/c1ccccc1,,"inconclusive: 20 µM [activator, single point]"
COc1ccc2[nH]cc(CCN3C(=O)c4ccc(C(=O)O)cc4C3=O)c2c1,,active: 10 µM
C(=C\c1nc(-c2ccccc2)no1)/c1ccccc1,,"inconclusive: 2.24 µM [activator, full curve, poor fit]"
CC(=O)Oc1ccc2occ(-c3ccccc3)c2c1,,"inconclusive: 11.2 µM [activator, partial curve, poor fit]"
COc1ccccc1N/C(N)=N/c1nc(CSc2ccc(C)cc2)cc(=O)[nH]1,inactive: -30.8%,
OCc1nc2ccccc2n1CCCOc1ccc(Br)cc1,,"inconclusive: 12.6 µM [activator, partial curve, poor fit]"
C(=NN1CCCCCC1)c1ccc2ccccc2n1,inactive: -61%,
O=C(Nc1ccccc1C(=O)O)c1cc(S(=O)(=O)Nc2cccc(F)c2)ccc1Cl,inactive: 0.342%,
COc1cc(OC)c(OC)cc1/C=C/c1nccc2ccccc12,,"inconclusive: 2 µM [activator, partial curve, poor fit]"
CCC1CCCCN1C(=O)CSc1nnc(-c2ccco2)o1 (stereo not given),,active: 3.16 µM
COc1ccc(-c2csc(N3CCC(C(N)=O)CC3)n2)cc1,,"inconclusive: 12.6 µM [activator, partial curve, poor fit]"
CCCn1nnc(NC(=O)c2ccc(-c3cccc(Cl)c3)o2)n1,,"inconclusive: 11.2 µM [activator, partial curve, poor fit]"
Cc1ccc(-c2nc(C#N)c(NCc3ccco3)o2)cc1,,"inconclusive: 6.31 µM [activator, full curve, poor fit]"
Cc1ccc(C(=O)CSc2nnc(-c3ccco3)n2C)cc1,,"inconclusive: 17.8 µM [activator, partial curve, poor fit]"
COc1cc(C)ccc1OCc1cc(C(=O)N2CCCCCCC2)no1,,"inconclusive: 20 µM [activator, partial curve, poor fit]"
O=C(NCCc1ccccc1)c1ccc(Cl)nc1,,"inconclusive: 25.1 µM [activator, single point]"
Cc1ccc(C)c(Nc2nc(N)c3ccccc3n2)c1,,"inconclusive: 2.82 µM [activator, full curve, poor fit]"
CC(=O)N1CCN(C(=S)c2ccc(Cl)cc2)CC1,inactive: -11.2%,
CC(C)c1ccc2nc(N)sc2c1,,"inconclusive: 2.24 µM [activator, full curve, poor fit]"
COc1ccc(COc2ccccc2C(N)=O)cc1F,,"inconclusive: 17.8 µM [activator, single point]"
COc1cc(OC)c(C(=O)Nc2ccc3ccccc3c2)cc1OC,,"inconclusive: 31.6 µM [activator, single point]"
O=C(Nc1nccs1)c1ccc2sc([C@H]3C[C@H](O)[C@@H](CO)O3)nc2c1,,active: 12.6 µM
CCCCN1CC(COCc2ccccc2)Oc2cccc(Oc3cc(C)c(C)c(C)c3)c2S1(=O)=O (stereo not given),inconclusive: 77.8% [activator],
C/C(=N/N=C/c1ccccc1O)c1ccccc1O,,"inconclusive: 22.4 µM [activator, single point]"
